Test results published in the supplement of paper PMC11417369.
This is one part of the list.

system: PF3D7_0420300 AP2 domain 1 (GST-tagged); test: gcPBM binding intensity (ln(normalized median fluorescence intensity)); higher = stronger DNA binding
Outline: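 Alexa488 anti-GST antibody, scanned at 488 nm, detected GST-tagged P. falciparum DNA-binding domains that had been expressed in E. coli and incubated for 1 h on an Agilent 4 × 180k array. The array carried primer-extended double-stranded 36-bp intergenic genomic probes and negative controls. Binding intensity is the highest Masliner-normalised natural-log median intensity across replicate spots of either orientation of each probe.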

Row | Sequence | gcPBM binding intensity (ln)
1 | TTTTAATTGTTTATTTGTACATATGTTTAATTATAT [XGTACX_site571] | 9.38
2 | TTTAATATATATATGTGTACATATAAATTATATATA [XGTACX_site8511] | 8.96
3 | GTACTTATTAAATGTGCATGTTGATATATAAATGTA [TGCATGCA_site902] | 9.25
4 | TTTATATTTTAAAAAATAATATTATGTATTTTTAAA [TGCATGCA_negctrl_site507] | 8.68
5 | ATATACATAAAAATATGTACATATAAAATATATACA [XGTACX_site2394] | 9.14
6 | ATATAATAAACGTGTACACAATTAAATTATTATATA [CACACA_site5017] | 9.28
7 | TAGACTCCCAGACACACACACACACCCATATAATAT [CACACA_site593] | 10.2
8 | TTTTTTTTTTTTGGTGCATGCACATTTTGTTTTTTT [TGCATGCA_site570] | 9.53
9 | TATTATTATTGTTGATGTACATTTAATATAATATAT [XGTACX_site4482] | 9.13
10 | ACATTCAATAAACGTCGTACACTTTCCTTTTTATGA [XGTACX_site3274] | 9.33
11 | AAAAAAACGATCGATCGTACTTATATTTACACATTC [XGTACX_site2883] | 9.36
12 | TTGTTTGGTTATAATTGTACGCATGTAATTACATAT [XGTACX_site4972] | 9.46
13 | TTATTTTTCTAAAAAGCATGCAAATAAAGATATGAA [TGCATGCA_site1032] | 8.98
14 | ACATGGTGATAATACTGTACAAAAATAAATAAATAC [XGTACX_site897] | 9.52
15 | ATATATATTTTATTATGTACTTACTTCTTTTCTTAA [XGTACX_site6163] | 9.24
16 | TTTTATAGTCTTATGGGTACAAAATATTAACCCACG [XGTACX_site1131] | 8.83
17 | ATTCACTGGTATGCATGAAAAAAAATATTATTATAA [CACACA_negctrl_site702] | 8.86
18 | TATATATATTTATACACACACATATATTTATATATT [CACACA_site484] | 9.7
19 | TTATGTGTATACTAAGAACACACAAGTTACTTGGTG [CACACA_site8467] | 9.72
20 | ATTTTGATAACCGTACGTACATATATATATATATAT [XGTACX_site6605] | 9.38
21 | TGAATACTTATGTTCGCACACATGCAAATTAAAAAA [CACACA_site4048] | 9.07
22 | TATTGAAAAAATAAAAGTACAAACTCTTATAATATG [XGTACX_site8196] | 9.15

Row | Sequence | gcPBM binding intensity (ln)
23 | CCCGAACAAACAAATAAACACACAAAAAAAAATATA [CACACA_site8540] | 9.63
24 | ATTATATATGTATGGTGTACTAAGAATATTTTTTTA [XGTACX_site1950] | 9.15
25 | AACACATACAAACACACACACAAAAAAAAAAAAAAA [CACACA_site393] | 9.78
26 | ATTCAATATAAATACACACACACTTTTAATAATTAA [CACACA_site5963] | 9.95
27 | CTAAACAAAAAATAATGTACACATACATAAAAAATA [XGTACX_site1808] | 9.35
28 | TAATAATAATACCAGCGTACATTTTTCTTTCCTACG [XGTACX_site4056] | 9.27
29 | TTCCTTAATCAATATTGTACTTTTTATAAATTTAGT [XGTACX_site3678] | 9.38
30 | TCTGTGTTTTTGGGTACACACAAATAGCTTGTATAT [CACACA_site4002] | 9.72
31 | TGAAAATTAATAAAAAGTACATAGTCAGATTTGTGA [XGTACX_site2450] | 9.23
32 | TATTTTTTCTTAAACACACACATATATATATATAAT [CACACA_site5567] | 9.55
33 | ATAAAATGTATATGAATGCACTTGAAGTTTTTTTTT | 9.11
34 | ATAAATCCATGGGTAGTGCGCATTTTTTTTTTTTTT [GTGCAC_site9732] | 9.56
35 | TTAGTGTATTAATTCTCACACACTAAGAAAAAAAAA [CACACA_site3878] | 9.04
36 | TCTCCTTGTTCCTTTTTTTTAAAAAAAAACATTAAA [CACACA_negctrl_site679] | 9.15
37 | TATATGTGACATGAATGTACCCAAATTATATAAGAA [XGTACX_site3937] | 9.08
38 | CATAGGAACATAAGTTGTACGCTATACATACAACAT [XGTACX_site1054] | 9.35
39 | TATTCTTACACGTTTGCACACTAAAATATATATATA [CACACA_site435] | 9.37
40 | ATTTAATATATTTATTGTACATATAAAATAAAAGAA [XGTACX_site2413] | 9.23
41 | ATCAGTCGAGATGACAGTACACAGTAGCCAGGAAAT [XGTACX_site4932] | 9.37
42 | TATGTAGATAAATAAGCACACACCAAACATATAAAA [CACACA_site1182] | 9.89
43 | TATATATATTTAAAAAGTACAAAAAAAAAAAATGAA [XGTACX_site374] | 9.38
44 | CCCTGAGCACTTTCGTGTACTAATAGTAACAATAAT [XGTACX_site1418] | 9.11

Row | Sequence | gcPBM binding intensity (ln)
45 | AATAATAAACACAATCAAATAAAATATGAAATATAA [GTGCAC_negctrl_site307] | 9.46
46 | AAATGTTGAAATGATACACACATATAAATATAAATA [CACACA_site7229] | 9.55
47 | AAACAAATGTATATGTGTACTTATTTTTTTGTATGT [XGTACX_site7134] | 9.32
48 | ATAAAGAAAAGGAACACACAAATATGTAAATATGTA [CACACA_site6356] | 9.61
49 | TTACACATAAATACCATATAAATATAATGCATATCT [CACACA_negctrl_site1731] | 9.3
50 | AAAACATTATTCCATACACACCATACTTTTTAATAA [CACACA_site7326] | 9.46
51 | TAAAATATTATCTACGCACACATTAAAATAAAAAAA [CACACA_site3709] | 9.3
52 | CATTTGCACACGCACACACACATAAAAAGAAAAATA [CACACA_site6297] | 9.99
53 | ACAATACAAATATATACACACATACATACATACATA [CACACA_site5699] | 9.69
54 | TTAATTTGTAAATAATGTACATATAAATGGAAAGTA [XGTACX_site2743] | 9.4
55 | TATTTATTAAAACACACACACACACCGACAAAATAA [CACACA_site4293] | 10.1
56 | TAATAAAACATATATACACACATTATGTATACATAT [CACACA_site1703] | 9.52
57 | TTAATATTTACAAAATGTACAGATTATTTATTGTTG [XGTACX_site1270] | 9.15
58 | AAATATGTCAAATATACACACATAATAACTAGAATA [CACACA_site7151] | 9.63
59 | TTTTTTAATATTTATACATGCATGCCGATTACTATA [TGCATGCA_site26] | 9.22
60 | AATAATTATAATAAGGGTACGTATCTCACAGGAAAA [XGTACX_site4187] | 9.49
61 | TAATAAATATATAATTGTACTTAAAAGAATATAAAA [XGTACX_site2928] | 9.1
62 | AATATATACCAACATAAATATATATATATATATATA [TGCATGCA_negctrl_site334] | 9.36
63 | AAGTGTATATAAAAATGTACATATTTCGATTTAAAT [XGTACX_site4161] | 9.32
64 | ATATATATATATATATGTACATAATTAATAATTAGA [XGTACX_site5672] | 9.27
65 | AGTTCGAATATATAAAGTACATAATTATATATTTGC [XGTACX_site2604] | 9.21
66 | TCTATTAACTGATGTGCATGTTATAACCTAGAAGTA [TGCATGCA_site359] | 9.19

Row | Sequence | gcPBM binding intensity (ln)
67 | TAATATCATTTAGACACACACTCTTACAATATGTAA [CACACA_site5434] | 9.43
68 | TTACACATATTATATATATATAAAAAAAAAAAATAT [CACACA_negctrl_site1684] | 9.35
69 | ACCAATAATATACATACACACATAAAGGTTTATATA [CACACA_site315] | 9.66
70 | AAAAATCGATACAAGCGTACAAAATAAAATAAAAAT [XGTACX_site5546] | 9.43
71 | TATATATATATATGTATATATGTATATCTATATTTA [CACACA_negctrl_site131] | 9.01
72 | TCTTATCCTACTTTTATTTTTACTTTTTTTTCTTAT [CACACA_negctrl_site111] | 9.69
73 | TAAATTGAGTATATTACACACATATAAATATATTAT [CACACA_site4027] | 9.4
74 | TGGATTCGTATATGTAGTACTATTTATATGTGATTT [XGTACX_site1581] | 9.48
75 | ACTACATAATATTTACGTACCTAAAAAATTCTTATA [XGTACX_site509] | 9.08
76 | TCTTGACTAAATATATGTACATATATTTTAATAATA [XGTACX_site701] | 9.13
77 | TAAGTGCTTTTCAACTGTACCTTCCATTTATTTATT [XGTACX_site8589] | 9.34
78 | GTATTCAAAAGTGAAACATGCAATAATATATATATA [TGCATGCA_site617] | 9.33
79 | TTCTTATTTTATATTTCACACATTTTTACTATACTT [CACACA_site5817] | 9.77
80 | AAAAAAAAAAAAAATACACACGTGAATGTATTGTTT [CACACA_site4856] | 9.36
81 | ATACGTATTTATTTCACACACGTTAAAAAAATAAAA [CACACA_site6027] | 9.12
82 | AGAATGAAATAATATACACACAAAGGAAAAATGTAA [CACACA_site3911] | 9.98
83 | AAGGAGCCTATGAACACACACATGTACCTATATTAA [CACACA_site7838] | 9.62
84 | TCACATATTATCTTTACACACTATATATAAGTTTTA [CACACA_site2790] | 9.53
85 | TCATGTTTTACAAAAACACACAAATGAATATAAACC [CACACA_site1161] | 9.57
86 | TTAAGATAGCAAATATGTACACATTTGTAAAATAAA [XGTACX_site4837] | 9.25
87 | TGTACATAAATCTAATTATTATATGTGTATATATAT [CACACA_negctrl_site1582] | 9.16
88 | AGTACAGACATAGACACACACACACCCATAAAAAAA [CACACA_site1515] | 10.1
